EPA's CvTdb concentration-time database
The source gives many values for each of these; only a part stands here.

Assays:
[1] = test system: Rat; assay: concentration in plasma after dosing; settings: 8760 h; dosed: 3,3',4,4',5-pentachlorobiphenyl; 1000 mg/kg; oral; Male; Harlan Sprague Dawley
[2] = test system: Rat; assay: concentration in liver after dosing; settings: 8184 h; dosed: 3,3',4,4',5-pentachlorobiphenyl; 1000 mg/kg; oral; Male; Harlan Sprague Dawley
[3] = test system: Rat; assay: concentration in liver after dosing; settings: 6744 h; dosed: 3,3',4,4',5-pentachlorobiphenyl; 1000 mg/kg; oral; Female; Harlan Sprague Dawley
[4] = test system: Rat; assay: concentration in liver after dosing; settings: 16 h; dosed: 3,3',4,4',5-pentachlorobiphenyl; 1000 mg/kg; oral; Female; F344
[5] = test system: Rat; assay: concentration in liver after dosing; settings: 2 h; dosed: 3,3',4,4',5-pentachlorobiphenyl; 1000 mg/kg; oral; Female; F344
[6] = test system: Rat; assay: concentration in liver after dosing; settings: 24 h; dosed: 3,3',4,4',5-pentachlorobiphenyl; 1000 mg/kg; oral; Female; F344
[7] = test system: Rat; assay: concentration in liver after dosing; settings: 8760 h; dosed: 3,3',4,4',5-pentachlorobiphenyl; 1000 mg/kg; oral; Male; Harlan Sprague Dawley
[8] = test system: Rat; assay: concentration in liver after dosing; settings: 8760 h; dosed: 3,3',4,4',5-pentachlorobiphenyl; 1000 mg/kg; oral; Male; Harlan Sprague Dawley; remark: listed apart in the source
[9] = test system: Rat; assay: concentration in liver after dosing; settings: 16 h; dosed: 3,3',4,4',5-pentachlorobiphenyl; 1000 mg/kg; oral; Female; F344; remark: listed apart in the source
[10] = test system: Rat; assay: concentration in liver after dosing; settings: 8 h; dosed: 3,3',4,4',5-pentachlorobiphenyl; 1000 mg/kg; oral; Female; F344
[11] = test system: Rat; assay: concentration in plasma after dosing; settings: 0.5 h; dosed: alpha/beta-Thujone mixture; 25 mg/kg; oral; Male; F344
[12] = test system: Rat; assay: concentration in brain after dosing; settings: 2 min; dosed: alpha/beta-Thujone mixture; 25 mg/kg; oral; Male; F344
[13] = test system: Rat; assay: concentration in brain after dosing; settings: 10 min; dosed: 76231-76-0; 3.0 mg/kg; iv; Male; F344
[14] = test system: Rat; assay: concentration in brain after dosing; settings: 1.5 h; dosed: alpha/beta-Thujone mixture; 50 mg/kg; oral; Female; F344
[15] = test system: Rat; assay: concentration in brain after dosing; settings: 10 min; dosed: alpha/beta-Thujone mixture; 50 mg/kg; oral; Male; F344
[16] = test system: Rat; assay: concentration in brain after dosing; settings: 3 h; dosed: alpha/beta-Thujone mixture; 25 mg/kg; oral; Male; F344
[17] = test system: Rat; assay: concentration in brain after dosing; settings: 3 h; dosed: alpha/beta-Thujone mixture; 50 mg/kg; oral; Male; F344
[18] = test system: Rat; assay: concentration in brain after dosing; settings: 10 min; dosed: alpha/beta-Thujone mixture; 25 mg/kg; oral; Female; F344
[19] = test system: Rat; assay: concentration in brain after dosing; settings: 6 h; dosed: alpha/beta-Thujone mixture; 50 mg/kg; oral; Female; F344
[20] = test system: Rat; assay: concentration in brain after dosing; settings: 10 min; dosed: alpha/beta-Thujone mixture; 50 mg/kg; oral; Male; F344; remark: listed apart in the source
[21] = test system: Rat; assay: concentration in brain after dosing; settings: 2 min; dosed: alpha/beta-Thujone mixture; 25 mg/kg; oral; Female; F344
[22] = test system: Rat; assay: concentration in plasma after dosing; settings: 10 min; dosed: alpha/beta-Thujone mixture; 25 mg/kg; oral; Male; F344
[23] = test system: Rat; assay: concentration in plasma after dosing; settings: 0.5 h; dosed: alpha/beta-Thujone mixture; 25 mg/kg; oral; Male; F344; remark: listed apart in the source
[24] = test system: Rat; assay: concentration in brain after dosing; settings: 1.5 h; dosed: alpha/beta-Thujone mixture; 25 mg/kg; oral; Male; F344
[25] = test system: Rat; assay: concentration in brain after dosing; settings: 0.5 h; dosed: alpha/beta-Thujone mixture; 50 mg/kg; oral; Female; F344
[26] = test system: Rat; assay: concentration in plasma after dosing; settings: 5 min; dosed: 76231-76-0; 3.0 mg/kg; iv; Male; F344
[27] = test system: Rat; assay: concentration in brain after dosing; settings: 6 h; dosed: alpha/beta-Thujone mixture; 25 mg/kg; oral; Female; F344
[28] = test system: Rat; assay: concentration in brain after dosing; settings: 0.5 h; dosed: alpha/beta-Thujone mixture; 25 mg/kg; oral; Male; F344
[29] = test system: Rat; assay: concentration in plasma after dosing; settings: 2 min; dosed: alpha/beta-Thujone mixture; 50 mg/kg; oral; Female; F344
[30] = test system: Rat; assay: concentration in brain after dosing; settings: 10 min; dosed: alpha/beta-Thujone mixture; 50 mg/kg; oral; Female; F344
[31] = test system: Rat; assay: concentration in brain after dosing; settings: 1.5 h; dosed: alpha/beta-Thujone mixture; 50 mg/kg; oral; Male; F344
[32] = test system: Rat; assay: concentration in brain after dosing; settings: 20 min; dosed: 76231-76-0; 3.0 mg/kg; iv; Male; F344
[33] = test system: Rat; assay: concentration in brain after dosing; settings: 5 min; dosed: 76231-76-0; 3.0 mg/kg; iv; Female; F344
[34] = test system: Rat; assay: concentration in plasma after dosing; settings: 10 min; dosed: alpha/beta-Thujone mixture; 50 mg/kg; oral; Female; F344
[35] = test system: Rat; assay: concentration in brain after dosing; settings: 10 min; dosed: alpha/beta-Thujone mixture; 25 mg/kg; oral; Female; F344; remark: listed apart in the source
[36] = test system: Rat; assay: concentration in brain after dosing; settings: 10 min; dosed: 76231-76-0; 3.0 mg/kg; iv; Male; F344; remark: listed apart in the source
[37] = test system: Rat; assay: concentration in plasma after dosing; settings: 12 h; dosed: alpha/beta-Thujone mixture; 25 mg/kg; oral; Male; F344
[38] = test system: Rat; assay: concentration in plasma after dosing; settings: 0.75 h; dosed: 76231-76-0; 3.0 mg/kg; iv; Male; F344
[39] = test system: Rat; assay: concentration in brain after dosing; settings: 2 min; dosed: alpha/beta-Thujone mixture; 50 mg/kg; oral; Male; F344
[40] = test system: Rat; assay: concentration in plasma after dosing; settings: 10 min; dosed: alpha/beta-Thujone mixture; 25 mg/kg; oral; Male; F344; remark: listed apart in the source

Clc1ccc(-c2cc(Cl)c(Cl)c(Cl)c2)cc1Cl [3,3',4,4',5-pentachlorobiphenyl]
Settings	concentration in liver [pg/g]	concentration in plasma [pg/mL]
[1]	–	28.8
[2]	1340	–
[3]	1040	–
[4]	14400	–
[5]	6060	–
[6]	14800	–
[7]	468	–
[8]	762	–
[9]	18700	–
[10]	19000	–

CC(C)[C@]12CC(=O)[C@H](C)[C@H]1C2 [alpha-Thujone]
Settings	concentration in brain [ng/g]	concentration in plasma [ng/mL]
[11]	–	291
[12]	149	–
[13]	1380	–
[14]	445	–
[15]	1360	–
[16]	191	–
[17]	330	–
[18]	2090	–
[19]	897	–
[20]	1220	–
[21]	35.3	–
[22]	–	121
[23]	–	206
[24]	309	–
[25]	2270	–
[26]	–	1100
[27]	91.8	–
[28]	432	–
[29]	–	152
[30]	3450	–
[31]	1520	–
[32]	836	–
[33]	3280	–
[34]	–	743
[35]	2480	–
[36]	1700	–
[37]	–	15.1
[38]	–	92.1
[39]	25.6	–
[40]	–	423
